# Measurements: the supplement of paper PMC6089552
# The whole screen tested about 3,200 compounds, of which about 300 (9.4%) showed activity. The entries are a selection whose mix differs from that of the whole data set.
# Tested on: A673/TR/shEF
# Assay: cell viability (LOESS-normalised, relative to median of negative controls) (log2 ratio); higher = more viable cells (less compound effect), active = hit call of the paper (over 3 MAD below the median)
# Settings: treatment time: 72 h
# Method in brief: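 A673/TR/shEF Ewing sarcoma cells (1,500 per well, 384-well plates) were grown with or without doxycycline to induce EWS-FLI1 shRNA knockdown, starting 24 h before compounds. Library compounds at two or more concentrations, with DMSO controls, were added for three days. Cell viability was read by CellTiter-Glo luminescence on an Envision reader, then LOESS-corrected per plate, divided by the median of negative controls and log2-transformed. Hits were wells at least three median absolute deviations from the median of all screened wells.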
# [1] = 0.25 µM, library screen: screen2, EWS-FLI1 expression: high (no doxycycline)
# [2] = 0.25 µM, library screen: screen2, EWS-FLI1 expression: low (doxycycline-induced shRNA knockdown)
# [3] = 2.5 µM, library screen: screen2, EWS-FLI1 expression: high (no doxycycline)
# [4] = 2.5 µM, library screen: screen2, EWS-FLI1 expression: low (doxycycline-induced shRNA knockdown)
# [5] = 0.25 µM, library screen: screen1, EWS-FLI1 expression: high (no doxycycline)
# [6] = 0.25 µM, library screen: screen1, EWS-FLI1 expression: low (doxycycline-induced shRNA knockdown)
# [7] = 2.5 µM, library screen: screen1, EWS-FLI1 expression: high (no doxycycline)
# [8] = 2.5 µM, library screen: screen1, EWS-FLI1 expression: low (doxycycline-induced shRNA knockdown)
# [9] = 0.103 µM, library screen: screen3, EWS-FLI1 expression: high (no doxycycline)
# [10] = 0.103 µM, library screen: screen3, EWS-FLI1 expression: low (doxycycline-induced shRNA knockdown)
# [11] = 0.308 µM, library screen: screen3, EWS-FLI1 expression: high (no doxycycline)
# [12] = 0.308 µM, library screen: screen3, EWS-FLI1 expression: low (doxycycline-induced shRNA knockdown)
# [13] = 0.926 µM, library screen: screen3, EWS-FLI1 expression: high (no doxycycline)
# [14] = 0.926 µM, library screen: screen3, EWS-FLI1 expression: low (doxycycline-induced shRNA knockdown)
# [15] = 2.8 µM, library screen: screen3, EWS-FLI1 expression: high (no doxycycline)
# [16] = 2.8 µM, library screen: screen3, EWS-FLI1 expression: low (doxycycline-induced shRNA knockdown)
# [17] = 8.3 µM, library screen: screen3, EWS-FLI1 expression: high (no doxycycline)
# [18] = 8.3 µM, library screen: screen3, EWS-FLI1 expression: low (doxycycline-induced shRNA knockdown)
# [19] = 25 µM, library screen: screen3, EWS-FLI1 expression: high (no doxycycline)
# [20] = 25 µM, library screen: screen3, EWS-FLI1 expression: low (doxycycline-induced shRNA knockdown)
compound,measurement,setting,value
CCCCCCCCCCCCCCCCCCOCC(COP(=O)([O-])OCC[N+](C)(C)C)OC (configuration not stated),cell viability (log2),[1],inactive: 0.195
same,cell viability (log2),[2],inactive: 0.168
same,cell viability (log2),[3],inactive: 0.13
same,cell viability (log2),[4],inactive: 0.0442
CC(C)c1c(O)ccc2c1CC[C@H]1C(C)(C)CCC[C@]21C,cell viability (log2),[5],inactive: 0.0946
same,cell viability (log2),[6],inactive: 0.115
same,cell viability (log2),[7],inactive: 0.166
same,cell viability (log2),[8],inactive: 0.269
O=C(NCC1CCCO1)c1cc(-c2ccccc2)nc2ccccc12 (configuration not stated),cell viability (log2),[5],inactive: 0.0071
same,cell viability (log2),[6],inactive: 0.138
same,cell viability (log2),[7],inactive: 0.132
same,cell viability (log2),[8],inactive: 0.0289
COC(=O)c1c(C)[nH]c(C)c1C(=O)c1ccccc1Cc1ccccc1,cell viability (log2),[1],inactive: 0.144
same,cell viability (log2),[2],inactive: 0.111
same,cell viability (log2),[3],inactive: 0.0878
same,cell viability (log2),[4],inactive: 0.0692
O=C1O/C(=C/Br)CCC1c1cccc2ccccc12 (configuration not stated),cell viability (log2),[1],inactive: 0.145
same,cell viability (log2),[2],inactive: 0.144
same,cell viability (log2),[3],inactive: 0.118
same,cell viability (log2),[4],inactive: 0.163
Nc1nc(N)c2nc(CNc3ccc(C(=O)N[C@@H](CCC(=O)O)C(=O)O)cc3)cnc2n1,cell viability (log2),[5],active: -1.62
same,cell viability (log2),[6],active: -0.186
same,cell viability (log2),[1],inactive: 0.137
same,cell viability (log2),[2],inactive: 0.126
same,cell viability (log2),[7],inactive: 0.122
same,cell viability (log2),[8],inactive: 0.141
same,cell viability (log2),[3],inactive: 0.123
same,cell viability (log2),[4],inactive: 0.134
CC(C(=O)O)c1cccc(C(=O)c2ccccc2)c1 (configuration not stated),cell viability (log2),[9],inactive: 0.106
same,cell viability (log2),[10],inactive: 0.0412
same,cell viability (log2),[5],inactive: 0.12
same,cell viability (log2),[6],inactive: -0.0201
same,cell viability (log2),[1],inactive: 0.204
same,cell viability (log2),[2],inactive: 0.13
same,cell viability (log2),[11],inactive: 0.093
same,cell viability (log2),[12],inactive: 0.102
same,cell viability (log2),[13],inactive: 0.0295
same,cell viability (log2),[14],inactive: 0.058
same,cell viability (log2),[7],inactive: 0.103
same,cell viability (log2),[8],inactive: 0.0158
same,cell viability (log2),[3],inactive: 0.122
same,cell viability (log2),[4],inactive: 0.173
same,cell viability (log2),[15],inactive: 0.145
same,cell viability (log2),[16],inactive: 0.11
same,cell viability (log2),[17],inactive: 0.0932
same,cell viability (log2),[18],inactive: 0.0536
same,cell viability (log2),[19],inactive: 0.0365
same,cell viability (log2),[20],inactive: 0.131
CC1=C(C(=O)Nc2cc3cn[nH]c3cc2F)C(c2ccc(C(F)(F)F)cc2)CC(=O)N1 (configuration not stated),cell viability (log2),[9],inactive: 0.104
same,cell viability (log2),[10],inactive: 0.079
same,cell viability (log2),[11],inactive: -0.014
same,cell viability (log2),[12],inactive: 0.0534
same,cell viability (log2),[13],inactive: 0.0879
same,cell viability (log2),[14],inactive: 0.0725
same,cell viability (log2),[15],inactive: 0.103
same,cell viability (log2),[16],inactive: 0.0173
same,cell viability (log2),[17],inactive: 0.106
same,cell viability (log2),[18],inactive: 0.0222
same,cell viability (log2),[19],inactive: 0.0646
same,cell viability (log2),[20],inactive: -0.122
O=NN(CCCl)C(=O)NCCCl,cell viability (log2),"0.025 µM, library screen: screen2, EWS-FLI1 expression: high (no doxycycline)",inactive: 0.0358
same,cell viability (log2),"0.025 µM, library screen: screen2, EWS-FLI1 expression: low (doxycycline-induced shRNA knockdown)",inactive: -0.0301
same,cell viability (log2),[5],inactive: 0.0968
same,cell viability (log2),[6],inactive: 0.0497
same,cell viability (log2),[1],inactive: 0.0788
same,cell viability (log2),[2],inactive: 0.0584
same,cell viability (log2),[7],inactive: 0.0465
same,cell viability (log2),[8],inactive: 0.027
same,cell viability (log2),[3],inactive: 0.0723
same,cell viability (log2),[4],inactive: 0.0689
same,cell viability (log2),"25 µM, library screen: screen2, EWS-FLI1 expression: high (no doxycycline)",inactive: 0.0128
same,cell viability (log2),"25 µM, library screen: screen2, EWS-FLI1 expression: low (doxycycline-induced shRNA knockdown)",inactive: -0.00633
